Source: PubChem BioAssay AID488969 (Vanderbilt High Throughput Screening Facility, 2010)
In all, about 110,000 compounds were measured (“z-score”: median about -0.1, highest 2% from about 2 on). This is one part of the list.

The compounds below were run against Metabotropic glutamate receptor 8 (Rattus norvegicus) (UniProt P70579) (assay: mGluR8 Gi/Go-coupled signaling modulation – cell-based, rat, thallium flux, HTS, primary screen (AID 488969)). Details: HEK293 rat mGluR8, GIRK (G protein-gated inwardly rectifying potassium channel) thallium flux, FluoZin2; at 10 µM; stronger effect = higher value; submaximal glutamate (EC20) added with thallium.
Sequence of UniProt P70579 (P70579 whole entry, looked up): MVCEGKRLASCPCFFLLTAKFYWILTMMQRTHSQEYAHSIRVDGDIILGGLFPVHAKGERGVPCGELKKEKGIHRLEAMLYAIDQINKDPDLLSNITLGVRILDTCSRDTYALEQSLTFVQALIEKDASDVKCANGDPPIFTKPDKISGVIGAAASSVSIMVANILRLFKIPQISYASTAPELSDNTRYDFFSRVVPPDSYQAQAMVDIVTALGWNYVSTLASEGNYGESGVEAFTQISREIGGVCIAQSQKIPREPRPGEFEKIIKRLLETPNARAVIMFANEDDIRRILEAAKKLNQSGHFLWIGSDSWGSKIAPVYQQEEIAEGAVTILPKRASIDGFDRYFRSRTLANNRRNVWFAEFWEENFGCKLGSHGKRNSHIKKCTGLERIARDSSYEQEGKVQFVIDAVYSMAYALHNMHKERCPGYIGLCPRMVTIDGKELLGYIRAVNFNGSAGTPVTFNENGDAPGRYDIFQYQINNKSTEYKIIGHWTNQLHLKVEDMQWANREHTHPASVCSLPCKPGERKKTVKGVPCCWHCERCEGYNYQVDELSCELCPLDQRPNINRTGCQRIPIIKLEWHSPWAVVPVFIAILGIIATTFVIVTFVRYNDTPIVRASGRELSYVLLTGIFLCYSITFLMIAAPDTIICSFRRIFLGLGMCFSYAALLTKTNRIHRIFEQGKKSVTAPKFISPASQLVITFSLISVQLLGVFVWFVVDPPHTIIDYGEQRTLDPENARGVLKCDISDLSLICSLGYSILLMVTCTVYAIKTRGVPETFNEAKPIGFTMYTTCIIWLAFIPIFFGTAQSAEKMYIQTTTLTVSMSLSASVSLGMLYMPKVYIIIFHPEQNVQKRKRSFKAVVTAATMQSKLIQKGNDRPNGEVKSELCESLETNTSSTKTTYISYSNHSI

| SMILES | z-score |
| --- | --- |
| O=C(C1CCCCC1)N(Cc1ccccc1)c1ccccn1 | -0.809 |
| COc1ccc(Nc2nc(N3CCCCC3)nc3ccccc23)c(OC)c1 | 2.6 |
| COc1cc2c(cc1OC)-c1nnc(-c3ccco3)n1C1(CCCC1)C2 | -0.271 |
| C=CCN1C(=O)S/C(=C/c2ccsc2)C1=O | -0.0335 |
| CCC(=O)OC1CC(C)N(C(=O)c2ccccc2)c2ccc(C)cc21 (centres undefined) | -0.807 |
| COC(=O)c1ccc(OC(=O)CCN2C(=O)C3C4c5ccccc5C(c5ccccc54)C3C2=O)cc1 (centres undefined) | -0.3 |
| CCOC(=O)c1sc(-c2ccc(OC)cc2)cc1NC(C)=O | -0.181 |
| Cc1cc(C)n2nc[n+](C)c2n1 | -0.0994 |
| C=CCn1c(=N)n(CC(=O)c2ccc(Br)s2)c2ccccc21 | -1.22 |
| O=C(NCc1ccc2c(c1)OCO2)C1CC(c2ccc(Cl)c(Cl)c2)=NO1 (centres undefined) | -0.125 |
| CCN(CC)C(=S)SCC(=O)c1c(C)[nH]c2ccccc12 | -0.207 |
| COc1ccc(NC(C)=O)cc1NC(=O)CN1CCN(CC(=O)Nc2ccccc2Cl)CC1 | -1.02 |
| O=C(NCCN1CCCC1)c1ccc(CS(=O)(=O)c2c(Cl)cccc2Cl)o1 | -0.063 |
| O=C(O)C1(NS(=O)(=O)c2ccc(F)c(Cl)c2)CCCCC1 | 0.157 |
| CCCCCCc1c(O)nc(SCC(=O)O)[nH]c1=O | 0.353 |
| Cc1ccccc1Cn1c(=O)n(CC2CCC(C(=O)NCCc3ccccc3)CC2)c(=O)c2ccccc21 (centres undefined) | -0.211 |
| C=CCOc1ccc2c(CC)cc(=O)oc2c1C | -0.699 |
| CCOC(=O)c1c(C=O)c(C)n(Cc2ccc(C)cc2)c1C | -0.259 |
| CCc1ccc(-c2csc(NC(=O)C3CC(=O)N(c4ccc5c(c4)OCCO5)C3)n2)cc1 (centres undefined) | 0.368 |
| Cc1nn(C)cc1CNC(=O)Nc1cccc(Cl)c1 | 0.0377 |
| O=S(=O)(c1ccc(Cl)cc1)n1c(Cc2ccccc2)nc2ccccc21 | -0.171 |
| CCOC(=O)c1cnc(Nc2nc3ccccc3o2)nc1CSc1nnc(C)s1 | 0.179 |
| CCSc1cc(C)nc2ncnn12 | 0.0597 |
| CCc1sc(C(=O)Nc2cc(Cl)ccc2N2CCCCC2)cc1C | 0.176 |
| Cc1cc(F)ccc1S(=O)(=O)Nc1ccccc1C(=O)Nc1ccccc1-c1nc2ccccc2[nH]1 | -0.235 |

| SMILES | z-score |
| --- | --- |
| COc1cccc(N/C(SC)=C(/C#N)C(N)=O)c1 | 0.184 |
| COc1ccc(-c2cc(-c3nnc(COC(=O)CC4CCCC4)o3)c3ccccc3n2)cc1OC | -0.171 |
| Cc1ccccc1NC(=O)C1(C)Cc2ccccc2C(=O)O1 (centres undefined) | 0.354 |
| O=C(CN1C(=O)c2ccccc2C1=O)NNC1=NS(=O)(=O)c2ccccc21 | 0.0472 |
| CC(C)CCOP(=O)(c1ccccc1)c1ccccc1 | -2.77 |
| CCOC(=O)C1CSC(CC(=O)Nc2ccc(OCC)cc2)C(=O)N1 (centres undefined) | -0.0647 |
| COC(=O)c1ccc(CSc2nnc(C)s2)cc1 | -0.133 |
| Cn1cccc1C(=S)N1CCOCC1 | 1.12 |
| O=C(COc1ccccc1)Nn1cnc2ccccc21 | -0.833 |
| N/C(=N\OC(=O)CC1CCCCC1)c1ccccn1 | -0.1 |
| O=C(NC1CC1)C1CCC(=O)N1C1CCCC1 (centres undefined) | 0.108 |
| CCCCCCNCc1ccc(Br)cc1 | -0.0374 |
| CC(=O)Cc1nsc(Nc2ccccc2)n1 | 0.418 |
| Cc1ccccc1N1C(=O)CC(Sc2nnc(-c3ccccc3)o2)C1=O (centres undefined) | 0.0122 |
| O=C(Nc1ccccc1)N1CCOCC1 | -0.206 |
| Cn1ccnc1Sc1nc2c(c(=O)n(C)c(=O)n2C)n1C | 0.204 |
| CCC(C)c1ccc(S(=O)(=O)N2CC(=O)Nc3ccccc32)cc1 (centres undefined) | -0.268 |
| Cc1nn2c(-n3ccnc3C)c3c(nc2c1-c1ccccc1)CCC3 | -0.311 |
| CCc1nnc(NC(=O)c2ccc(-c3ccccc3Cl)o2)s1 | -0.559 |
| O=c1cc(N2CCN(c3ccc(F)cc3)CC2)[nH]c(=O)n1Cc1ccc(F)cc1 | 0.0667 |
| C=C(C)C(=O)OC1(C(F)(F)F)Oc2cc(C)ccc2NC1=O (centres undefined) | -0.772 |
| COc1ccc(NC(=O)Cn2nnc(C(=O)NCCc3ccc(OC)c(OC)c3)c2N)cc1 | 0.0718 |
| COc1nccnc1NS(=O)(=O)c1ccc(NC(=S)NC(=O)c2cccc(F)c2)cc1 | -0.186 |
| COCCn1c(SCC(=O)Nc2cc(C)cc(C)c2)nnc1C(C)C | -0.196 |
| Cc1ccc(N)cc1-n1c(C)ccc1C | 0.0348 |

| SMILES | z-score |
| --- | --- |
| CCCn1nnc(NC(=O)C(c2ccccc2)c2ccccc2)n1 | 0.792 |
| O=C1C2ON(c3ccccc3)C(c3ccccc3F)C2C(=O)N1c1ccccc1 (centres undefined) | -0.108 |
| COc1ccc(-c2nc3scc(-c4ccccc4)n3n2)cc1 | 0.453 |
| COC(=O)C1=C(C)N(c2cccc(Cl)c2)C(=O)C1 | -0.271 |
| COC(=O)c1c(NC(NC(=O)C(C)C)C(Cl)(Cl)Cl)sc2c1CCC2 (centres undefined) | -0.164 |
| COc1ccc(OC)c(N=c2ssnc2Cl)c1 | 0.0164 |
| COc1ccc(OC)c2c1sc(=NC(=O)CN1C(=O)CCC1=O)n2C | -0.248 |
| CC(OC(=O)c1cccs1)C(=O)NCc1ccccc1 (centres undefined) | -0.186 |
| C=CCNC(=O)C12CC3(C)CC(C)(CC(C)(C3)C1)C2 | -0.477 |
| C/C(=N/NC(=O)c1cc(C2CC2)[nH]n1)c1cccs1 | -0.291 |
| CCOc1ccc(NS(=O)(=O)c2ccc(NC(=O)[C@@H]3CCCC[C@@H]3C(=O)O)cc2)cc1 | 0.0947 |
| CN(CC(=O)Nc1ccccn1)S(=O)(=O)c1ccc(Cl)cc1 | -0.263 |
| O=C(NCCCN1CCOCC1)c1cc2ccccc2o1 | -0.144 |
| CCOC(=O)c1nnn(-c2nonc2N)c1-c1cccc2ccccc12 | -1.66 |
| COC(=O)C1=C(C)N(c2ccc(F)cc2)C(=O)C1 | 0.436 |
| COc1cccc(-c2nc(-c3ccc(NC(=O)c4cccs4)cc3)no2)c1 | -0.227 |
| CN(CC(=O)Nc1ccc(N2CCOCC2)cc1)CC(=O)Nc1ccccc1[N+](=O)[O-] | -0.146 |
| O=C1CCC(C(=O)N(Cc2ccco2)C2(C(=O)NC3CCCC3)CCCCC2)N1 (centres undefined) | -0.815 |
| Cc1ccccc1NS(=O)(=O)c1cc(C(=O)NCCC2=CCCCC2)ccc1C | -0.297 |
| O=S(=O)(c1ccccc1)c1cnc(-c2cccnc2)nc1-c1ccc(Cl)c(Cl)c1 | -0.328 |
| O=C(c1ccco1)c1nc2c(n1O)CCCCC2 | -0.169 |
| O=C(Nc1nc2c(s1)CCc1ccccc1-2)c1cccs1 | -0.0995 |
| Cc1ccc(/C=c2/sc3nnc(-c4ccccc4Cl)n3c2=O)o1 | -0.433 |
| CN(C)c1ccc(C(=S)N2CCCCCC2)cc1 | -0.472 |
